Assay results reported in PMC4933246.
No constants are given. Whether binding was seen depends on the method and setting. For some assays here: Binding seen in cells or lysates may run through a third protein. Some binding calls cover weakened binding; strength is not graded here. One block for each substance: values may come before it.

Amino acid sequences for entries named in this document (tags omitted). A change or cut given only in a name is not applied to a line headed by its entry.
UniProt Q99453: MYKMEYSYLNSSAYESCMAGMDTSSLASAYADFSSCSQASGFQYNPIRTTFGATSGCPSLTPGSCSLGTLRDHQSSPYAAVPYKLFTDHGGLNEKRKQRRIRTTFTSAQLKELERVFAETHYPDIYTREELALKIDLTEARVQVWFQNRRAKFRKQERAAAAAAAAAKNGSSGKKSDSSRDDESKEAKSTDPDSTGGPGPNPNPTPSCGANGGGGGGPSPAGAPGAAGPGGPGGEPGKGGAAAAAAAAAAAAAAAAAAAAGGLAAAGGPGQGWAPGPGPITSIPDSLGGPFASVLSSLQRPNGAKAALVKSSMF
UniProt O14813: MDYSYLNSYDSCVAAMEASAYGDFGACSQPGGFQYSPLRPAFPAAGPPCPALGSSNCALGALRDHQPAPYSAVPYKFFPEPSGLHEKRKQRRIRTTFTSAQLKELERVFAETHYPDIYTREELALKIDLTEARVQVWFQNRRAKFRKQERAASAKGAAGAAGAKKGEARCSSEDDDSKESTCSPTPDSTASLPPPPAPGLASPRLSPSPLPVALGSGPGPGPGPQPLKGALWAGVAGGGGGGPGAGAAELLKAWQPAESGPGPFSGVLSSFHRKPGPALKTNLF

What was measured:
[1] = target: PHOX2B wild type fused to GAL4 BD or VP16 AD (human) (UniProt Q99453); assay: two-hybrid; mammalian two-hybrid (CheckMate, Promega) in HeLa cells; GAL4 BD fusion (pBIND) and VP16 AD fusion (pACT), 80 fmol each, with 160 fmol pG5LUC; Dual-Luciferase assay
[2] = target: PHOX2A fused to GAL4 BD or VP16 AD (human) (UniProt O14813); assay: two-hybrid; competition in the mammalian two-hybrid system in HeLa cells: GAL4 BD- and VP16 AD-tagged PHOX2A (or PHOX2B WT) co-transfected with equimolar amounts of a plasmid encoding PHOX2B WT or mutants; pG5LUC luciferase
[3] = target: PHOX2A, MYC- or HA-tagged (human) (UniProt O14813); assay: co-IP; HeLa cells co-transfected with MYC- and HA-tagged expression vectors, harvested after 24 h; total extracts in 25 mM Tris-HCl pH 8.0, 150 mM NaCl, 1% Nonidet P-40, 0.5% sodium deoxycholate, 1 mM MgCl2 with universal nuclease; anti-MYC or anti-HA antibody overnight at 4 °C, protein G-agarose; Western blotting with anti-MYC and anti-HA
[4] = target: PHOX2A fused to GAL4 BD or VP16 AD (human) (UniProt O14813); assay: two-hybrid; mammalian two-hybrid (CheckMate, Promega) in HeLa cells; GAL4 BD fusion (pBIND) and VP16 AD fusion (pACT), 80 fmol each, with 160 fmol pG5LUC; Dual-Luciferase assay
[5] = target: PHOX2B wild type fused to GAL4 BD or VP16 AD (human) (UniProt Q99453); assay: two-hybrid; competition in the mammalian two-hybrid system in HeLa cells: GAL4 BD- and VP16 AD-tagged PHOX2A (or PHOX2B WT) co-transfected with equimolar amounts of a plasmid encoding PHOX2B WT or mutants; pG5LUC luciferase
[6] = target: PHOX2B wild-type protein, MYC- or HA-tagged (human) (UniProt Q99453); assay: co-IP; HeLa cells co-transfected with MYC- and HA-tagged expression vectors, harvested after 24 h; total extracts in 25 mM Tris-HCl pH 8.0, 150 mM NaCl, 1% Nonidet P-40, 0.5% sodium deoxycholate, 1 mM MgCl2 with universal nuclease; anti-MYC or anti-HA antibody overnight at 4 °C, protein G-agarose; Western blotting with anti-MYC and anti-HA
[7] = target: in vitro expressed PHOX2B wild-type protein (human) (UniProt Q99453); assay: native gel or EMSA; in vitro expressed proteins (rabbit reticulocyte lysate) combined in equimolar amounts with a labelled oligonucleotide of the DBH promoter; supershift with anti-PHOX2A or anti-PHOX2B antibodies

Substance: PHOX2A fused to GAL4 BD or VP16 AD (from UniProt O14813 1-284)
binding [1]: binds | binding [2]: binds

Substance: PHOX2A, MYC- or HA-tagged (from UniProt O14813 1-284)
binding [3]: binds

Substance: VP16-PHOX2B 98–157 (from UniProt Q99453 98-157) (domain or fragment)
binding [1]: no binding

Substance: VP16-PHOX2B 155–314 (from UniProt Q99453 155-314) (domain or fragment)
binding [1]: no binding

Results, then the substance that gave them:

binding [4]: binds | binding [5]: binds
Substance: PHOX2B wild type fused to GAL4 BD or VP16 AD (from UniProt Q99453 1-314)

binding [3]: binds | binding [6]: binds
Substance: PHOX2B wild-type protein, MYC- or HA-tagged (from UniProt Q99453 1-314)

binding [1]: binds
Substance: VP16-PHOX2B 98–314 (from UniProt Q99453 98-314) (domain or fragment)

binding [7]: binds
Substance: in vitro expressed PHOX2A (from UniProt O14813 1-284)
